# Test results from PubChem BioAssay AID504832 (National Center for Advancing Translational Sciences (NCATS), 2011).
# About 18,000 (5.8%) of roughly 310,000 compounds were called active. Inconclusive results, whose numbers are uncertain, are shown with a selection of clear calls. Calls come from the whole dose curve; as a rule, active = well fitted inhibition curve with a large enough effect; inconclusive = small, poorly fitted or top-dose-only effect, or another doubt; inactive = no such curve, though single readings can be large or run the other way. No potency is given beside an inconclusive call; the fits are too rough.
# Experiment: Primary qHTS for delayed death inhibitors of the malarial parasite plastid, 48 hour incubation
# Conditions: P. falciparum luciferase growth in erythrocytes; series mostly up to 28.7 µM; activity change, negative = inhibition: at the top concentration
# Procedure, shortened: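 Here the parasites carry a stable luciferase gene and grow inside erythrocytes in Albumax-based RPMI medium with compound for one erythrocytic cycle. Activity is scored as loss of luminescent signal.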
# % is set by controls: 0 for no effect and ±100 for the full control effect; potency is the fitted concentration of half-maximal effect; tags give direction and shape of the fitted curve.
SMILES,Potency,"activity change, negative = inhibition"
CCCc1[nH]nc2c1C(c1c(C)nn(-c3ccccc3)c1Cl)C(C#N)=C(N)O2 (centres undefined),"inconclusive [inhibitor, single point]",–
CCS(=O)(=O)c1ccc2c(c1)N(S(=O)(=O)c1ccc(C)cc1)CC(C(=O)O)O2 (centres undefined),"inconclusive [inhibitor, full curve, poor fit]",–
Cc1cc(C)c2cc(CN(Cc3cccs3)Cc3nnnn3CC3CCCO3)c(=O)[nH]c2c1 (centres undefined),"inconclusive [inhibitor, single point]",–
COc1ccc(/C=C/c2ccc3cccc(O)c3n2)cc1Br,"inconclusive [inhibitor, full curve]",–
COc1ccc(OC)c(C2Nc3nc4ccccc4n3C(C)=C2C(=O)Nc2ccc(C)cc2C)c1 (centres undefined),active: 7.38 µM,–
O=[N+]([O-])c1ccccc1NCc1c(O)ccc2ccccc12,"inconclusive [inhibitor, single point]",–
COC(=O)c1c(NC(NC(C)=O)C(Cl)(Cl)Cl)sc2c1CCCC2 (centres undefined),"inconclusive [inhibitor, single point]",–
O=C(CSc1nc2ccccc2o1)Nc1cc(C(F)(F)F)ccc1N1CCOCC1,active: 11.7 µM,–
CN(CC(=O)Nc1cccc(S(=O)(=O)N2CCOCC2)c1)CC(=O)Nc1ccc(Cl)c(C(F)(F)F)c1,"inconclusive [inhibitor, partial curve]",–
c1ccc(COc2ccc(-c3sc(Nc4ccccc4)n[n+]3-c3ccccc3)cc2)cc1,"inconclusive [inhibitor, partial curve, poor fit]",–
CCc1cccc2c(C(=O)CSc3nnc(C4CC4)o3)c[nH]c12,–,inactive: -23.9%
CCOc1cc(Cl)c(S(=O)(=O)NCCCn2ccnc2)cc1Cl,"inconclusive [inhibitor, full curve, poor fit]",–
CC(C)(C)c1ccc(C(=O)Nc2nnc(SCC(=O)NCC3CCCO3)s2)cc1 (centres undefined),–,inactive: -1.32%
C/C(=N\Nc1cc(-c2ccccc2)nc(-c2ccccc2)n1)c1ccc(O)c(C)c1,"inconclusive [inhibitor, single point]",–
NC(=O)c1sc2nc3c(c(-c4ccco4)c2c1N)CCCC3,–,inactive: 19.3%
Cn1ccnc1CN1CCCCC1C(=O)Nc1ccc(Oc2cccnc2)cc1 (centres undefined),"inconclusive [inhibitor, full curve, poor fit]",–
COc1cc(C(=O)Nc2cccc(NC(=O)c3ccccc3)c2)cc(OC)c1OC,"inconclusive [inhibitor, single point]",–
Cc1cccc(OC(=O)c2sc(Cl)nc2C)c1,–,inactive: -6.8%
CC1(C)CC(=O)C(C=NCCN2CCN(C3CC(=O)N(c4cccc(Br)c4)C3=O)CC2)=C(O)C1 (centres undefined),–,inactive: -1.29%
CCn1cnc2c1c(=O)n(CC(=O)Nc1ccc(C(N)=O)cc1)c(=O)n2Cc1ccccc1,"inconclusive [inhibitor, partial curve]",–
C[n+]1ccc(/C=C/c2cccs2)cc1,active: 2.94 µM,–
O=C(CN1CCN(Cc2ccc3c(c2)OCO3)CC1)N1CCc2[nH]c3ccccc3c2C1,"inconclusive [inhibitor, single point]",–

SMILES,Potency,"activity change, negative = inhibition"
CN(C)c1ccc(-c2n(C)c3ccccc3[n+]2C)cc1,"inconclusive [inhibitor, full curve, poor fit]",–
Fc1ccccc1N1CCN(C(c2cccs2)c2nnnn2CCc2ccccc2)CC1 (centres undefined),active: 8.28 µM,–
Cc1ccc(S(=O)(=O)NC2CC(=O)N(c3ccc4c(c3)OCCO4)C2)cc1 (centres undefined),–,inactive: 1.25%
COCCCN1C(=O)/C(=C/c2ccc(CNS(=O)(=O)c3ccccc3)o2)C(C(=O)OC)=C1C,"inconclusive [inhibitor, single point]",–
C=C(C)Cn1c(CCCNC(=O)C(C)(C)C)nc2ccccc21,"inconclusive [inhibitor, single point]",–
O=c1c2ccccc2c(C=Nc2ccc(O)cc2)c(O)n1Cc1ccccc1,"inconclusive [inhibitor, single point]",–
O=C(Nc1ccc(F)cc1)N1CCC(c2nc3c(nnn3Cc3ccccc3Cl)c(=O)[nH]2)CC1,"inconclusive [inhibitor, partial curve, poor fit]",–
CCOC(=O)c1c(C)n(-c2ccccc2)c2ccc(O)c(CN(C)C)c12,"inconclusive [inhibitor, single point]",–
Cc1ccc(S(=O)(=O)CCC(=O)OC(C)C(=O)Nc2ccc(N3CCOCC3)cc2)cc1 (centres undefined),–,inactive: 51.4%
CC(C)Oc1ccc(C(=O)NCc2ccco2)cc1,"inconclusive [inhibitor, partial curve]",–
CC(=O)N1CCc2cc(S(=O)(=O)CCC(=O)Nc3cccc(F)c3)ccc21,"inconclusive [inhibitor, single point]",–
C[C@@H](NCCCc1cccc(C(F)(F)F)c1)c1cccc2ccccc12,active: 7.57 µM,–
CC(C)c1onc(C(=O)NCc2ccccn2)c1[N+](=O)[O-],"inconclusive [inhibitor, partial curve, poor fit]",–
CN(C)S(=O)(=O)c1ccc(C(=O)Nc2nnc(-c3cccs3)o2)cc1,active: 13.1 µM,–
CC(NC(=O)C(=O)N1CCCCC1)C(c1cccs1)N1CCN(Cc2ccccc2)CC1 (centres undefined),"inconclusive [inhibitor, single point]",–
CCCC/C=C/C(NC(=O)CCc1ccccc1)c1ccccc1 (centres undefined),"inconclusive [inhibitor, partial curve, poor fit]",–
Cc1c(C(=O)O)cccc1-n1c(C)cc(/C=N/Nc2ccc([N+](=O)[O-])cn2)c1C,"inconclusive [inhibitor, full curve, poor fit]",–
CCCc1nc2c(nnn2Cc2ccccc2)c(=O)[nH]1,"inconclusive [inhibitor, partial curve, poor fit]",–
O=C(CCCN1C(=O)C(c2ccccc2)Oc2cccnc21)Nc1cccc(F)c1 (centres undefined),active: 10.4 µM,–
O=C(COc1ccc2c(-c3ccccc3)cc(=O)oc2c1)Nc1cccnc1,"inconclusive [inhibitor, full curve, poor fit]",–
COc1ccc(C(C)NC(=O)c2cccc([N+](=O)[O-])c2)cc1OC (centres undefined),"inconclusive [inhibitor, partial curve, poor fit]",–
O=C(COc1cccnc1[N+](=O)[O-])NCc1cccs1,"inconclusive [inhibitor, partial curve, poor fit]",–

SMILES,Potency,"activity change, negative = inhibition"
COc1ccc(Br)cc1CN1CCSCC1,–,inactive: 3.94%
CN(Cc1cn[nH]c1-c1ccc(-c2ccccc2)cc1)CC1CCOCC1,–,inactive: 1.88%
CCOc1ccc(NC(=O)CN(C)C(=O)c2cc(C)on2)cc1OCC,"inconclusive [inhibitor, single point]",–
CN1CCN(S(=O)(=O)c2ccc(N3CCN(c4ccc(O)cc4)CC3)c([N+](=O)[O-])c2)CC1,"inconclusive [inhibitor, single point]",–
Cc1nnc(SCC(=O)c2cc(C)n(-c3ccc4c(c3)OCO4)c2C)s1,"inconclusive [inhibitor, single point]",–
CCCCc1ccc(/C=C2\C(=O)c3ccccc3C(O)=C2C(=O)OCC)cc1,"inconclusive [inhibitor, partial curve]",–
Cc1ccc2oc(C(=O)N(Cc3ccncc3)CC3CCCO3)c(C)c2c1 (centres undefined),"inconclusive [inhibitor, single point]",–
COc1ccccc1N1CCN(C(=O)CN(c2ccccc2OC)S(=O)(=O)c2ccccc2)CC1,"inconclusive [inhibitor, partial curve, poor fit]",–
CCOc1c2ccoc2nc2c(OC)c(OC)ccc12,–,inactive: 29.4%
Cc1ccc(S(=O)(=O)N2[C@@H](c3ccccc3)C(C(=O)O)=CC[C@H]2c2ccc(C(C)C)cc2)cc1,"inconclusive [inhibitor, full curve, poor fit]",–
O=C1CSC(=S)N1/N=C/c1cccc(C(F)(F)F)c1,"inconclusive [inhibitor, single point]",–
Cc1cc(C)c2nc(-c3cccc(Cl)c3)c(C)c(C(=O)N3CCOCC3)c2c1,active: 11.7 µM,–
CN(C)C(CNC(=O)c1oc2ccccc2c1CSc1ncn[nH]1)c1ccco1 (centres undefined),"inconclusive [inhibitor, partial curve, poor fit]",–
CC(C)[C@H](CO)Nc1nc(Nc2ccc(Cl)c(C(=O)O)c2)c2ncn(C(C)C)c2n1,"inconclusive [inhibitor, single point]",–
COc1cc(NC(=O)NCc2ccncc2)cc(OC)c1OC,"inconclusive [inhibitor, full curve, poor fit]",–
COc1ccc(F)cc1C(=O)C1CCCN(Cc2cn(C)c3ccccc23)C1 (centres undefined),"inconclusive [inhibitor, single point]",–
Cc1ccc(C(C(=O)NC2CCCC2)N2CCCCC2)cc1 (centres undefined),"inconclusive [inhibitor, single point]",–
OC(COc1ccccc1)CN1CCN(C(c2ccccc2)c2ccccc2)CC1 (centres undefined),"inconclusive [inhibitor, single point]",–
CCOc1ccc(-n2c(C)nc3cc(C(=O)NCC4CCCO4)ccc32)cc1 (centres undefined),"inconclusive [inhibitor, partial curve, poor fit]",–
CC(=O)C1=C(O)C(=O)N(c2nccs2)C1c1ccccc1F (centres undefined),–,inactive: 4.93%
